# Source: ChEMBL document CHEMBL4888484, “Replenishing the malaria drug discovery pipeline: Screening and hit evaluation of the MMV Hit Generation Library 1 (HGL1) against asexual blood stage Plasmodium falciparum ,using a nano luciferase reporter read-out” (2022)
# Among all 150,000 compounds or so, about 540 (0.36%) showed an effect of 50% or more. The list shows a part of the results.
# Tested on: Plasmodium falciparum
# Assay: Primary screen in NF54 nanoGlo assay, in single point, at 2uM, 72h; a lower Z score goes with more inhibition
# Format: functional, Erythrocyte
# Settings: timepoint 72 hour
Compound,% Inhibition,Z score
COc1cc2c(c(OC)c1)N(C(=O)c1cc3ncccc3o1)CCC2,-4%,0.8
CCc1nn(-c2ccc(F)cc2)c(Oc2cccc(C)c2)c1CN(C[C@H]1CCCO1)C(=O)COC,-14%,2.25
COCCn1ccc(NCc2ccoc2)n1,-9%,1.63
CCOc1cccc(CN2CCc3nc(N4CCOCC4)ncc3C2)c1,-6%,0.83
COCCCN1CC(=O)N[C@@H]2CN(C(=O)C(C)C)CC[C@@H]2OCc2cccc(c2)Oc2cc(ccc2OC)C1,-14%,2.62
Cc1occc1C(=O)N[C@H]1CCc2ccccc21,1%,-0.09
O=C(COC1CCCC1)N1CCCN(C2CC2)CC1,1%,-0.22
Cn1ccc(NC(=O)NCCc2cn[nH]c2)cc1=O,-2%,0.2
COc1cccc(NS(=O)(=O)c2c(C)sc(C)c2-c2cc(C(F)(F)F)on2)c1,-5%,0.82
O=C(Nc1ccc(S(=O)(=O)N2CCOCC2)cc1)C1=NN(c2ccccc2)C(=O)CC1,-6%,1.11
C[C@H](NC(=NC1CC1)NCc1cc2ccccc2o1)c1ccccc1,-10%,0.99
N#Cc1cccc(-c2ccnc(N[C@H]3CO[C@H]4[C@@H]3OC[C@@H]4NC(=O)c3ccc4c(c3)OCO4)n2)c1,31%,-3.5
CCn1cc(Cl)c(C(=O)N(C)C[C@@]23CCC[C@H]2N(C)C(=O)CC3)n1,-15%,1.98
O=C(NC1c2ccccc2CC12CCOCC2)N[C@H]1C[C@H]2CC[C@@H]1O2 (some centres not stated),-11%,2.14
COc1ccc(CCN2C(=O)[C@@H]3CCCN3C2=O)cc1OC,-8%,0.98
CC(=O)c1c(C)[nH]c(C(=O)N2CCO[C@H](c3ccccc3)C2)c1C,2%,-0.26
O=c1ccc(-n2cncn2)nn1CC1CCN(c2ncncc2F)CC1,-15%,2.16
O=C(Nc1cc(F)ccc1O)C1CC=CC1,2%,-0.26
COC[C@H](NC(=O)c1cc(C)cc(Br)c1)C(N)=O,-14%,1.71
C[C@@H]1CN(C(=O)CN2Cc3cnc(-c4ccccc4)nc3C2)C[C@H](C)O1,9%,-1.22
CCOC(=O)c1nc2ccccc2nc1N1CCCN(S(=O)(=O)c2ccccc2C(F)(F)F)CC1,-13%,1.43

Compound,% Inhibition,Z score
CCC(=O)Nc1cccc(C2OC(=O)N(Cc3ccc(C)cc3)C2C(=O)N2CCOCC2)c1 (configuration not stated),0%,0.02
CCc1ccccc1S(=O)(=O)N1CCC([C@H](O)c2ncc[nH]2)CC1,-10%,1.27
C[C@H](NC(=O)c1ccoc1)C(=O)N1CCCCCc2ccccc21,-13%,1.26
CN1C(=O)C[C@](CC(=O)N(C)C(C2CC2)C2CC2)(c2ccccc2Cl)C1=O,-2%,0.31
COc1cc(OC)cc(C(C(=O)O)N2CC(c3ccc(F)cc3)CC2C)c1 (configuration not stated),0%,-0.03
Cc1ccc2nc(NC(=O)Cc3noc4ccccc34)sc2c1,-9%,1.17
Cc1ccc(F)c(N2CCC[C@H](NC(=O)c3ccc[nH]3)C2=O)c1,9%,-1.78
O=C(c1cccs1)N(CCc1cccs1)C1CCOCC1,-6%,1.14
F[C@@H]1CN(Cc2ccc(C(F)(F)F)cc2)C[C@@H]1OCc1nc2ccccc2[nH]1,3%,-0.41
CN(CC(O)C(F)(F)F)C1(CO)CCOC1 (configuration not stated),-2%,0.25
CCCCc1ccc(CC(=O)NC2CCOC3(CCS(=O)(=O)C3)C2)cc1 (configuration not stated),-13%,1.65
CC(C)(C)OC(=O)Nc1cccc(N)n1,34%,-0.75
Cc1cccc(C(=O)N[C@@H](C)C(=O)NCc2ncc[nH]2)c1,-8%,0.78
Cc1cc2[nH]c(=O)[nH]c2c(NC(=O)c2csc(CN(C)C)n2)c1C,-14%,2.47
O=C1Nc2c(Cl)cccc2C(=O)N2C[C@H](O)C[C@@H]12,20%,-2.57
CCC(=O)Nc1c(S(=O)(=O)c2ccccc2)c2nc3ccccc3nc2n1[C@@H](C)c1ccccc1,-14%,1.29
O=C(Nc1cccc2[nH]ncc12)c1ccccc1[C@H]1CCNC1,-4%,0.78
Cc1ccc([C@H](CN2CCOCC2)NC(=O)C2CCN(S(=O)(=O)c3ccc(C)cc3C)CC2)cc1,-2%,0.33
Cc1ccnc(N[C@@H]2C=C[C@H](CO)C2)n1,-10%,0.99
CCN1CCn2c(nc3cc(C(=O)NCc4ccc(OC)cc4)ccc32)C1=O,-1%,0.07
